Results taken from paper PMC12136788.
The other results are listed elsewhere or left out.

B1: ENSG00000099250:stop:overlap|stop_codon|ENSG00000099250|stop_codon|NA|stop_codon (ssRNA)
RNA: GGGAGUUCUACAGUCCGACGAUCCAAUUCACGGAGAAAUGUGGUCAUCUGGAAAAGGAGUCUGCUCCCUGGAUGCGAAUCUGUAGCCUGGAUUCUGGAAGGCGAUGCUGAUUUAGGAGGUGGAGUGAAUGGAGAAUUGAAAAGCAACAGAGGAUUGAGCAUCA
B2: chr6:73594753:73594854:-|3pUTR|ENSG00000119899|unk|FALSE|unique (ssRNA)
RNA: GGGAGUUCUACAGUCCGACGAUCGGUUCACAUACCUGCCUGCUAGUCGGGCAACAUGAAGUAGGACAGUUCUGUUGAUUUUUUAGGGCCAUACUAAAGGGAAUGAGCUGAAACAGACCUCCUGAUACCUUUGCUUAAUUAAACCAACAGAGGAUUGAGCAUCA
B3: chr17:81921741:81921842:-|3pUTR|ENSG00000197063|msi1|total|mutant (ssRNA)
RNA: GGGAGUUCUACAGUCCGACGAUCAAUUAUAUGUUUAAAAGUUAAAGAAAAAAGAGCUGCAGAGUAUUUAUAAAACUGUCUUUCCGAAAAAAAACAAGCAAGAAGACCAUUUGACCAUAUGAAUGGAAAAGGGAAGAAAGUAUACAACAGAGGAUUGAGCAUCA
B4: chr2:47509289:47520906:-|three_prime_utr|ENSG00000184261|control|control|control (ssRNA)
RNA: GGGAGUUCUACAGUCCGACGAUCCGGCAACCCCAAAGCAUAUGGUGCAACUUUUCGUGGCUCUGAAUUACCUCCUCAGCAUUUAGAAUCCUGGCCCAGCCUAGCAGCUUCCUUCUGGUCGUCAGAAGUGAUAUAGUCACAGUUCAACAGAGGAUUGAGCAUCA
B5: chr9:93565116:93565217:+|3pUTR|ENSG00000048828|unk|FALSE|unique (ssRNA)
RNA: GGGAGUUCUACAGUCCGACGAUCAUAUACAAUACAUCAUACAUACUUUACAAGCAAGUUAAAUGGAGAUAAAGUUGAAAUCAUAGAAGAUGCAAAUGACCUUUCAAAAUCAACACAAUGUGUUCUGAAACUUUCGUGACUAAUCAACAGAGGAUUGAGCAUCA
B6: chr7:77627539:77627665:+|CDS|ENSG00000127947|unk|total|mutant (ssRNA)
RNA: GGGAGUUCUACAGUCCGACGAUCAAUAUUUCAACAGCAAGUGCCACAGUUUCUGCUGCCACCCGUACUGAAAGCAUUUCUACCCGGAAAGUAUUGCCAAUGUCCAUUGCCCGACAUAAUACCGCAGGAACAACACAUUCAGGUCAACAGAGGAUUGAGCAUCA
B7: ENSG00000136451:be:win_2051|3pUTR|ENSG00000136451|bound_else_gene|NA|bound_elsewhere_windowed (ssRNA)
RNA: GGGAGUUCUACAGUCCGACGAUCUUGUCAUAAUAAAAUGCAUUUCAGAGAAUAUGCAUUUUACCUUUGGGAAUAUGUUAAUUUCAGGCAGCAUUCCCUAUGGGAAAGGUGAUACCAGCUCUGAUAUGCAAAGCAUAUGAUAAUCAACAGAGGAUUGAGCAUCA
B8: ENSG00000064726:stop:overlap|stop_codon|ENSG00000064726|stop_codon|NA|stop_codon (ssRNA)
RNA: GGGAGUUCUACAGUCCGACGAUCUACCGGCUUUAGUUGUGAUGGGACAGCUAACACAUUCAGGGUCAUGUUCAAGGAACCCAUAGAGAUCCUGCCCAAUGUGUGCUACACAGCAUGUGCAACACUCAAAGGUCCAGAUUCCCACAACAGAGGAUUGAGCAUCA
B9: chr1:62648186:62648303:-|CDS|ENSG00000116641|unk|total|mutant (ssRNA)
RNA: GGGAGUUCUACAGUCCGACGAUCGAUGACCUUAAAAGACGUUCAAUGUCAACCGAUGAUACCCCAAGGGGCCGCUGGGCCUGCCGUAUCUUUGACUUGAAAAAUUCACUUCCUGAUGCUUUGCUUCCCAAUUUACUUGAUCGACAACAGAGGAUUGAGCAUCA
B10: chr6:37331633:37331734:+|3pUTR|ENSG00000065491|unk|FALSE|unique (ssRNA)
RNA: GGGAGUUCUACAGUCCGACGAUCCCGUUCCCCUUCUGCCCCAGUCUGAGCCAGUGAGGGGUAGCUUUUUAAAACCAUUAUUCUAGAUGGAGGAGGCACUGAUGCUUGUAACUCUGGAAAGAGGCCUACACCCAAGGGCUAGGACAACAGAGGAUUGAGCAUCA
B11: chr19:40393765:40398556:-|three_prime_utr|ENSG00000105227|control|control|control (ssRNA)
RNA: GGGAGUUCUACAGUCCGACGAUCCCAGCCCAGGGCCCUCACCCACCUCGGAGAGGCGUCCCCACCAUCGGAUCCAGGCUUGCUAGGGGUCCUGAACCAGGCUACUUCGAACCAGGAAAGCCAGAUUCCAGCCUGAGUGCUGGCCAACAGAGGAUUGAGCAUCA
B12: chr16:30193532:30193793:-|CDS|ENSG00000169627|control|control|control (ssRNA)
RNA: GGGAGUUCUACAGUCCGACGAUCGCCUUAGUAAGGGCGGAAGUGAGUUUUCCAGCGGAAGUGGCUCCUGUAAGGCAGCAAGGUAGCGUGGCCGGCGCCCGAGCUGGGGUUGUGUCCCUGCUGGGCUGCCGUUCCAGCUGGACUCAACAGAGGAUUGAGCAUCA
B13: chr7:77639488:77639589:+|3pUTR|ENSG00000127947|msi1|total|mutant (ssRNA)
RNA: GGGAGUUCUACAGUCCGACGAUCAGUAUUAUUGCCUUAAUGUCUCUUAACCCUGUUACACGCUGCUUGCCGACAUGUUAAUACCGUAAUACCUUUAUGAUAUAUUGAGUUUAAGGACUACUCUUUUUCUGUUUUAUCAUGUAUCAACAGAGGAUUGAGCAUCA
B14: chr6:4954605:4954706:+|3pUTR|ENSG00000153046|msi1|FALSE|bound_elsewhere (ssRNA)
RNA: GGGAGUUCUACAGUCCGACGAUCGGAUAAAUACUUCUGAUGAAAAAUCCGCUGAGGAGCAUACCCCAAACCAGACAUAUGCUUAGGAUUCAUGCUGAGAUAUCAAUUGGUUUCCCCUUCUUUUUAAAAUACGUCCAGUUCUUACAACAGAGGAUUGAGCAUCA

Each binder was assayed against MSI1 full-length (mouse, UniProt Q61474 1-362) (assay: nsRBNS (natural sequence RNA bind-n-seq); RBNS binding buffer (assumed for nsRBNS): 25 mM Tris pH 7.5, 150 mM KCl, 3 mM MgCl2, 0.01% Triton X-100, 500 ug/ml BSA, 20 U/ml SUPERase-In, 4 C; UNK is unkempt and MSI1 is Musashi-1; names of the RNAs are library labels; protein concentration not given here; high values mean tight binding).
Chain of UniProt Q61474 (Q61474 whole entry): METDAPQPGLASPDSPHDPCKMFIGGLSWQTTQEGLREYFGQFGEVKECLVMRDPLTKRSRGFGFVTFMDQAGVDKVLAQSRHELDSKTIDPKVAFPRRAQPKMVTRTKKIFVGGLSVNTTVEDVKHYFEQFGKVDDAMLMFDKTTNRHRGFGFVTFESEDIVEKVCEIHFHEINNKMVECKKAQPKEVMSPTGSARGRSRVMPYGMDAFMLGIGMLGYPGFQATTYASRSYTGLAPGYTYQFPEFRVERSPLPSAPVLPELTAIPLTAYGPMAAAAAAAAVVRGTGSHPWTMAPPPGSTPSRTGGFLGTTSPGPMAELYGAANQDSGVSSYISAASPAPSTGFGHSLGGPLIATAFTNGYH
Work on B1 yielded a binding signal of 0.543 enrichment R. B2 was tested, and the binding signal was 0.746 enrichment R. B3 was tested, and the binding signal was 3.35 enrichment R. For B4, the binding signal was 1.56 enrichment R. Work on B5 yielded a binding signal of 0.699 enrichment R. B6 was tested, and the binding signal was 0.394 enrichment R. Work on B7 yielded a binding signal of 0.199 enrichment R. Work on B8 yielded a binding signal of 0.464 enrichment R. B9 showed a binding signal of 0.394 enrichment R. B10 showed a binding signal of 0.844 enrichment R. For B11, the binding signal was 0.333 enrichment R. In the case of B12, the binding signal is reported as 0.62 enrichment R. For B13, the binding signal was 0.692 enrichment R. B14 was tested, and the binding signal was 0.393 enrichment R.
